According to PubChem BioAssay AID488969 (Vanderbilt High Throughput Screening Facility, 2010):
The full ranking holds about 110,000 compounds; the median of “z-score” is about -0.1, and the highest 2% start at about 2. This is one part of the list.

Target: Metabotropic glutamate receptor 8 (Rattus norvegicus) (UniProt P70579)
Experiment: mGluR8 Gi/Go-coupled signaling modulation – cell-based, rat, thallium flux, HTS, primary screen (AID 488969)
Conditions: HEK293 rat mGluR8, GIRK (G protein-gated inwardly rectifying potassium channel) thallium flux, FluoZin2; at 10 µM; stronger effect = higher value; submaximal glutamate (EC20) added with thallium

UniProt P70579, sequence (P70579 whole entry, looked up): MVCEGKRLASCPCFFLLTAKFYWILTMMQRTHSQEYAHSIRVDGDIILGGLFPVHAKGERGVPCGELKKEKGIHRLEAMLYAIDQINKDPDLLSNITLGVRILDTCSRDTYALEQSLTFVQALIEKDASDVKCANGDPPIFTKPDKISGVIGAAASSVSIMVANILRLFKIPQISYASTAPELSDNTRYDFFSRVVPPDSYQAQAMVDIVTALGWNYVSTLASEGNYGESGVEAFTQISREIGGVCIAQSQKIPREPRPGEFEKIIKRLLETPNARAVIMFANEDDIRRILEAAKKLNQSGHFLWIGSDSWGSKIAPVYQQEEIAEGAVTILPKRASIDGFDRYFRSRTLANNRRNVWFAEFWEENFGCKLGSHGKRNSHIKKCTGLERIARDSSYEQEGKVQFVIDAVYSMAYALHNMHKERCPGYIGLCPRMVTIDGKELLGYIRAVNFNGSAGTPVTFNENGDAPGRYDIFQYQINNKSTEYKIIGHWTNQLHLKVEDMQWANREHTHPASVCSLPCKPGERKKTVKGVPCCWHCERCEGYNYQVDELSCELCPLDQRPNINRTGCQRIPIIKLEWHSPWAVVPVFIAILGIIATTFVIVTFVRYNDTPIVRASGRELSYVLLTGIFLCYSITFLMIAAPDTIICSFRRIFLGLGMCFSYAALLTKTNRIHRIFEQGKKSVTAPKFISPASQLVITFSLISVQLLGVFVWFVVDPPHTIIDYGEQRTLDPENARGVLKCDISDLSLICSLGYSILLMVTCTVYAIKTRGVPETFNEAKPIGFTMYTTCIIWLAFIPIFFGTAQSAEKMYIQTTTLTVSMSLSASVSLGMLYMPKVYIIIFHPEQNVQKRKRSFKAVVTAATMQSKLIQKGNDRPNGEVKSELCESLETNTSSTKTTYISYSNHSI

Row | SMILES | z-score
1 | CCCc1nnc(NC(=O)c2ccncc2)s1 | 0.134
2 | CSCC[C@H](Nc1ncnc2sc(C)c(C)c12)C(=O)O | -0.154
3 | O=C(Nc1ccc2c(c1)OCO2)c1cnn2c(C(F)(F)F)cc(-c3ccco3)nc12 | -0.403
4 | CCCCNC(=O)c1onc(CSc2cccc(OC)c2)c1C(=O)O | -0.391
5 | O=C(NC(Cc1ccccc1)c1ccc2c(c1)OCCCO2)c1ccc(F)cc1 (configuration not stated) | -0.339
6 | CCOC(=O)c1c(NC(=O)CSc2nnc(N)s2)sc(C)c1-c1ccc(C)cc1 | -0.388
7 | COc1ccc(CNc2ccccc2SC)cc1OC | -0.136
8 | Cc1cc(/C([O-])=C(/C(=S)Nc2ccc(F)cc2)[n+]2ccccc2)c(C)n1-c1ccc(F)cc1 | -0.454
9 | CN(CC(=O)N1CCc2ccccc21)S(=O)(=O)c1cccc2cccnc12 | -0.146
10 | CC(=O)Nc1ccc(S(=O)(=O)NCCC(=O)Nc2ccc(C)c(Cl)c2)cc1 | -0.0921
11 | O=C(COC(=O)c1cc(Cl)ccc1Cl)NCCN1C(=O)CSC1=O | -0.138
12 | CN(C)CCNc1oc(COc2ccc(Cl)cc2)nc1C#N | 1.5
13 | CC(Oc1ccc(-c2ccccc2)cc1)C(=O)N1CCOCC1 (configuration not stated) | -0.496
14 | Cc1nc(NCCCO)c(C#N)c2c1COC(C)(C)C2 | 1.53
15 | CCCC(=O)Nc1ccc2nc(SCC(=O)Nc3nccs3)sc2c1 | 0.031
16 | CCN(CC)c1c([N+](=O)[O-])c(=O)sc2ccccc12 | -0.00969
17 | CCCn1c2c(c(O)c(C(=O)NC)c1=O)CCCC2 | -0.476
18 | CCOCCCNC(=O)C1CCCN1S(=O)(=O)c1ccc(Cl)cc1 (configuration not stated) | 0.113
19 | O=C(Nc1nc(-c2ccccc2)ns1)c1cccs1 | -1.46
20 | Cc1ccc(S(=O)(=O)O/N=C2/CCCc3occc32)cc1 | -0.153
21 | CCN(CC)S(=O)(=O)c1cccc(-c2nnc(SCc3nc4ccccc4s3)o2)c1 | 0.16
22 | Cc1ccc(-c2nnc(N3CCN(C(=O)Cn4c(=O)n(C)c5ccccc54)CC3)c3ccccc23)cc1 | 1.84
23 | Cc1ccsc1CNn1cnnc1SCc1ccccc1F | 1.15

Row | SMILES | z-score
24 | CCCCc1ccc(-c2c(C#N)c(N)nc3c2CCCC3)s1 | -0.0652
25 | CSc1ccccc1NC(=O)CN(c1ccccc1Br)S(C)(=O)=O | 2.04
26 | CN1CCCN(C(=O)c2cc(=O)[nH]c3ccccc23)c2nc3ccccc3nc21 | -0.15
27 | O=C(O)c1c[nH]c2ccc(S(=O)(=O)N3CCOCC3)cc12 | -0.375
28 | CC(C)OP(=O)(OC(C)C)C(Nc1ccccc1)c1ccccc1C(F)(F)F (configuration not stated) | -0.309
29 | Cc1cc(C)c(S(=O)(=O)N(CC(=O)O)CC(=O)O)c(C)c1 | 0.0533
30 | Cc1ccccc1OCCSc1nnc(C)n1-c1ccccc1 | -0.0941
31 | N#Cc1cc(N)ccc1Sc1ccc(Cl)cc1 | 0.503
32 | CCC(C)[C@H](NC(=O)OC(C)(C)C)C(=O)N/N=C/c1ccc2nccnc2c1 (some centres not stated) | 0.121
33 | COc1ccccc1OC1OC2COC(c3ccco3)OC2C(O)C1NC(C)=O (configuration not stated) | 1.75
34 | COc1cc(-c2nc3ccc4ccccc4c3c3c2CCC3)cc(OC)c1O | -0.255
35 | Cc1ccc(NC(=O)CSc2n[nH]c(=O)n2C2CC2)cc1S(=O)(=O)N1CCOCC1 | -0.201
36 | Cc1ccc(/C=N/n2c(-c3ccco3)n[nH]c2=S)s1 | 0.259
37 | CN(C)c1ccc(C2N3CC4(C)CN2CC(C)(C3)C4O)cc1 (configuration not stated) | -0.147
38 | COc1ccc(NC(=S)N2CCN(C(=O)C3CCCO3)CC2)c(OC)c1 (configuration not stated) | -0.191
39 | O=C1C2C3C=CC(C3)C2C(=O)N1CCc1ccccc1 (configuration not stated) | -0.187
40 | COc1ccc(NC(=O)Nc2cccc([N+](=O)[O-])c2)cc1Cl | 0.026
41 | Cn1c(-c2ccccc2)cccc1=O | 0.333
42 | OCc1ccccc1CNCc1ccccc1 | 0.0112
43 | O=C(c1cc(-c2ccncc2)nc2ccccc12)N1CCN(c2ccccn2)CC1 | -0.526
44 | COc1cccc(CN(C(=O)Cc2c[nH]c3ccccc23)C(C(=O)NC2CCCCC2)c2cccs2)c1 (configuration not stated) | 0.207
45 | COc1cc(NC(=O)Cc2ccc([N+](=O)[O-])cc2)c(C(=O)O)cc1OC | -0.305
46 | O=C(NC1CCCCC1)C1(c2ccccc2)CC1(Cl)Cl (configuration not stated) | -0.316

Row | SMILES | z-score
47 | CCOC(=O)C1CCN(c2nc(-c3ccccc3)nc3c2oc2ccccc23)CC1 | -0.609
48 | O=C(c1ccc(Cl)c([N+](=O)[O-])c1)N(Cc1ccccc1)C1CCS(=O)(=O)C1 (configuration not stated) | 2
49 | COc1cc(S(=O)(=O)NCc2ccccc2)ccc1F | 0.606
50 | Cc1cc2c(c(=O)n1CCN(C)C)C(c1ccncc1)C(C#N)=C(N)O2 (configuration not stated) | -0.0982
51 | CCSc1ncc(Cl)c(C(=O)Nc2sc3c(c2C(=O)NCc2cccnc2)CCCC3)n1 | -0.0832
52 | Nc1ccc(S(=O)(=O)NNC(=O)C(=O)NNc2ccccn2)cc1 | -0.11
53 | N#Cc1ccc(-c2ccco2)nc1SCC(=O)c1ccc(Cl)cc1 | 0.533
54 | Cc1ccc(OCC(=O)O)c(-n2nc3ccccc3n2)c1 | 0.024
55 | COc1ccc(-c2nc3ccccc3o2)cc1NC(=O)c1ccc(Br)o1 | -0.127
56 | CCc1nc(SCC(=O)Nc2ccc(C(=O)O)cc2)n[nH]1 | 1.07
57 | O=C(CSc1nc2ccccc2c(=O)n1-c1ccc(F)cc1)NCc1ccco1 | 0.000137
58 | Cc1cc(C(=O)NCCC(c2ccccc2)c2ccccc2)c(C)o1 | -0.167
59 | Cc1nn(C)cc1/C=N/O | 0.0629
60 | Fc1ccc(-c2n[nH]c(=S)n2/N=C/c2c[nH]c3ccccc23)cc1 | -0.0688
61 | CCOC(=O)NN1C(=O)c2ccccc2NC1c1ccc(N(C)C)cc1 (configuration not stated) | -0.142
62 | Cc1c(C(=O)Nc2ccc(OCc3ccccc3)cc2)cccc1[N+](=O)[O-] | 0.00171
63 | COc1ccc(CC(=O)c2ccc(O)cc2O)cc1OC | -1.61
64 | CCc1c(C)c2cc(Cl)c(O)c(CN(CC)CC)c2oc1=O | -0.0735
65 | O=C(CSc1nnc(-c2ccccc2)o1)Nc1ccccc1F | -0.28
66 | Cc1ccc(CN2CC(C(=O)Nc3ccc(S(=O)(=O)Nc4cc(C)nc(C)n4)cc3)CC2=O)cc1 (configuration not stated) | 0.368
67 | C=CCn1c(/N=C/c2ccc3c(c2)OCO3)nc2ccccc21 | -0.0867
68 | O=C(CS(=O)(=O)c1ccc(Cl)c(Cl)c1)Nc1ccccc1Cl | 0.0671
69 | CC(C)COc1ccc(-c2nn(-c3ccccc3)cc2C(=O)Nc2nccs2)cc1 | 0.0447

Row | SMILES | z-score
70 | Cc1cc(C)nc(SCc2nnc(SCC(=O)Nc3ncc(C)s3)n2Cc2ccco2)n1 | -0.496
71 | CC(C)Cc1nc2sc3c(=O)n(N)cnc3c2c2c1COC(C)(C)C2 | -0.375
72 | Cc1ccc(/C=C/C(=O)c2ccc(C)cc2)cc1 | 0.025
73 | CN(C)c1ccc(/C=C2/SC(=O)N(CCN=C3NS(=O)(=O)c4ccccc43)C2=O)cc1 | -0.133
74 | COc1ccc(C(=O)COC(=O)C2CCCN2C(=O)C23CC4CC(CC(C4)C2)C3)cc1 (configuration not stated) | 0.0625
75 | CN(C)S(=O)(=O)N1CCN(S(=O)(=O)c2ccc(F)cc2)CC1 | -0.569
76 | O=[N+]([O-])c1ccccc1OCCCN1CCOCC1 | -0.0205
77 | Clc1ccc(Cn2ncc3c(NCc4cccnc4)ncnc32)cc1 | -0.407
78 | Cc1ccc(-c2cn3c(=S)[nH]nc3s2)cc1 | -0.312
79 | CC(C)(C)C(=O)Nc1ccccc1C(=O)Nc1ccncc1 | 0.0756
80 | Cc1cc(C)cc(-n2cnc3cc(C(=O)O)ccc32)c1 | -0.392
81 | CCCCCCCCC(=O)N/N=C/c1cccc(Br)c1 | -0.128
82 | O=C1CC(N2CCCc3ccccc32)C(=O)N1c1ccccc1Cl (configuration not stated) | -0.446
83 | COCCCNC(=O)CSC1=Nc2ccccc2C2=NC(Cc3c[nH]c4ccccc34)C(=O)N12 (configuration not stated) | 0.768
84 | Cc1ccc(Cn2nnnc2CN2CCC(O)(c3ccc(F)cc3)CC2)cc1 | 1.6
85 | N#Cc1c(N2CCN(C(=O)c3ccccc3Cl)CC2)nc(-c2ccccc2)c2c1CCCC2 | -0.453
86 | CC(C)C(c1nnnn1Cc1ccc(F)cc1)N1CCSCC1 (configuration not stated) | 0.351
87 | COc1cccc(NC(=O)c2nn(C)cc2Br)c1 | 0.333
88 | CCOC(=O)c1ccc(NC(=O)Cn2nnc(-c3ccccc3F)n2)cc1 | -0.121
89 | CCOC(=O)C1C(=O)NC(N2CCCCC2)=NC1c1ccco1 (configuration not stated) | -0.274
90 | Cn1nc([N+](=O)[O-])nc1Oc1ccccc1N | -0.0598
91 | O=C(O)CP(=O)(c1ccccc1)c1ccccc1 | -0.183
92 | COC(=O)c1c(NC(=O)c2nc3ccccc3s2)sc2c1CCN(C(C)=O)C2 | -0.909

Row | SMILES | z-score
93 | Cc1nc2nc(-c3ccco3)[nH]n2c(=O)c1Cc1ccccc1 | -1.16
94 | COC(=O)COc1ccc(S(=O)(=O)N2CCOCC2)cc1C | 0.482
95 | O=C(NC1CCCC1)c1cccc(S(=O)(=O)N2CCCCC2)c1 | 0.0926
96 | Cc1ccc(C2=NN(CC(=O)NCc3ccccn3)C(=O)CC2)cc1 | 0.995
97 | COc1cc(Cl)cc(C2NC(=O)NC(C)=C2C(C)=O)c1OCC(=O)O (configuration not stated) | -0.405
98 | COc1ccccc1NC(=O)CCc1nc(-c2cccs2)no1 | -0.452
99 | C(#CCN1CCOCC1)COC(c1ccccc1)c1ccccc1 | -0.00302
100 | O=C(c1ccccc1)N1CCN(C2CCCCC2)CC1 | 0.248
101 | O=C1CC(N(C(=O)c2ccco2)c2cccc(Cl)c2)C(=O)N1c1cccc(Cl)c1 (configuration not stated) | -0.266
102 | CCCCN(C)C(=O)c1cn(CC)c2nc(C)ccc2c1=O | -0.12
103 | CCn1c2ccccc2c2cc(NC(=O)COC(=O)c3cc(OC)c(OC)cc3OC)ccc21 | 0.0126
104 | COc1cc(OC)c(-c2nn3c(-c4ccco4)nnc3s2)cc1OC | -1.13
105 | COc1ccc(Nc2nc(-c3cccs3)nc3ccccc23)c(OC)c1 | -0.0367
106 | COc1cc(O)oc1C=Nc1ccc(Cl)cc1 | -0.289
107 | CCCCc1ccc(NC(=S)Nc2cccnc2)cc1 | 2.66
108 | Cc1nn(Cc2ccccc2)c(C)c1NC(=O)c1noc2c1CCc1ccccc1-2 | 0.79
109 | COc1ccc(C(C)=O)cc1COC(=O)CNC(=O)c1ccccc1F | -0.19
110 | COc1ccc(C2c3c(n[nH]c3C)CC(C)(O)C2C(C)=O)cc1OC (configuration not stated) | -0.177
111 | COc1ccc2nc(N3CCCCC3)c(C#N)cc2c1 | -0.776
112 | Cn1c(CN2CCCC2)nc2cc(NS(=O)(=O)c3ccccc3)ccc21 | 0.133
